According to the supplement of paper PMC10338343:
± gives the standard deviation. Whole data set: some 3,700 sequences, median “pre-steady-state target cleavage rate” near 0.02, cut for the highest 2% near 0.23. The list shows a part of the results, in another mix than the full data.
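Further: 1 nM active piRISC with 0.1 nM target library at 33 °C single turnover.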

Each sequence was assayed on MILI (PIWIL2) piRISC loaded with Kctd7 piRNA (26 nt) (assay: pre-steady-state target cleavage rate (min^-1); MIWI and MILI are mouse PIWI proteins and EfPiwi is from a freshwater sponge; tags in brackets are library labels; higher = faster piRNA-guided slicing of the target). Details: guide: Kctd7 piRNA 5'p-UGUUAAUCUCUCAGAGAAGGUGACAG; auxiliary factor: 500 nM mouse GTSF1.
Procedure, shortened: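 The pre-steady-state cleavage rate was derived from a burst-and-steady-state fit of Cleave-'n-Seq data. For these assays, 1 nM active affinity-purified piRISC loaded with a single synthetic guide was mixed with […] a transcribed, DNA-blocked target RNA library in HEPES–potassium acetate buffer at 33 °C, with or without 500 nM GTSF1 partner protein, for 0–8 or 0–960 min. Sequencing counts of uncleaved targets were normalised to depth and to weakly complementary targets, and k3 was capped at 0.0001 min^-1 after three trials were pooled.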
With UAGUCUGACACCUUCUCUGAGAGAUUUACA the “pre-steady-state target cleavage rate” value was 0.116 ± 0.017. UAGUGACAGACCUUCUCUGAGAGAAUUAACA was tested, and the “pre-steady-state target cleavage rate” value was 0.0476 ± 0.017. In the case of UAGUGUGUCACCUUCUCUGAGAGGUUAACA, the “pre-steady-state target cleavage rate” value is reported as 0.0851 ± 0.015. In the case of UAGUCUGUCACCUUCUGUGAGAGAUUUACA, the “pre-steady-state target cleavage rate” value is reported as 0.0271 ± 0.0073. With UAGUGACUCACCAUGUCUGAGAGAUUAACA the “pre-steady-state target cleavage rate” value was 0.0653 ± 0.0084. With UAGUGACAGACGUUGUCUGAGAGAUUAACA the “pre-steady-state target cleavage rate” value was 0.0382 ± 0.0048. With UAGUGACACACGUUCUCUGACAGAUUAACA the “pre-steady-state target cleavage rate” value was 0.00631 ± 0.0034. For UAGUCUGUGUGCUUCUCUGAGAGAUUAACA, the “pre-steady-state target cleavage rate” value was 0.0176 ± 0.0032. In the case of UAGUGAGUCACGUUCUCUGAGACAUUAACA, the “pre-steady-state target cleavage rate” value is reported as 0.0246 ± 0.006. With UAGUGACACACCUUCUCUGAGAGAUUAAAA the “pre-steady-state target cleavage rate” value was 0.125 ± 0.026. In the case of UAGUGUGUCACCUUGUCAGAGAGAUUAACA, the “pre-steady-state target cleavage rate” value is reported as 0.0472 ± 0.0087. With UAGUCUGUCACCUACUCUGAGAGAUAAACA the “pre-steady-state target cleavage rate” value was 0.0816 ± 0.017. UAGUGUGUCACCUUCUCUGUGAGAUUAACA was tested, and the “pre-steady-state target cleavage rate” value was 0.0704 ± 0.011. In the case of UAGUGAGUCUCCUACUCUGAGAGAUUAACA, the “pre-steady-state target cleavage rate” value is reported as 0.101 ± 0.0099. UAGUGAGUCACCUUCGCUGAGAGAUUAACA was tested, and the “pre-steady-state target cleavage rate” value was 0.151 ± 0.023. For UAGUGACAGUCCUUGCUCUGAGAGAUUAACA, the “pre-steady-state target cleavage rate” value was 0.0199 ± 0.0059. For UAGUGACACACCUACUCUGACAGAUUAACA, the “pre-steady-state target cleavage rate” value was 0.0136 ± 0.0053. For UAGUCUCUCACCUUCUCUGAGACAUUAACA, the “pre-steady-state target cleavage rate” value was 0.0859 ± 0.0086. For UAGUGUGAGACCUUCUCUGAGAGAUUAACA, the “pre-steady-state target cleavage rate” value was 0.101 ± 0.0091. UAGUGUGUCACCUUCUGUGACAGAUUAACA was tested, and the “pre-steady-state target cleavage rate” value was 0.0357 ± 0.015. In the case of UAGUGUGUCUACCUUCUCUGAGAGAUUAACA, the “pre-steady-state target cleavage rate” value is reported as 0.0403 ± 0.0089. With UAGUGAGUCAACCUUCUCUGAGAGAUUAACA the “pre-steady-state target cleavage rate” value was 0.0964 ± 0.015. UAGUCUGACACCUUCUGUGAGAGAUUAACA was tested, and the “pre-steady-state target cleavage rate” value was 0.121 ± 0.011. For UAGUGUGUCACCUUCUCUGAGACAUAAACA, the “pre-steady-state target cleavage rate” value was 0.0193 ± 0.0083. UAGUGACAGUGCUUCACUGAGAGAUUAUCA was tested, and the “pre-steady-state target cleavage rate” value was 0.0073 ± 0.0034. For UAGUGUGUCAGGUUCUCUGAGAGAUUAAGA, the “pre-steady-state target cleavage rate” value was 0.0334 ± 0.0089. With UAGUGUGUCACCAUCUCUGAGAGAAUAACA the “pre-steady-state target cleavage rate” value was 0.132 ± 0.04. In the case of UAGUGACAGUCCUUCUCUGUGAGUUUAACA, the “pre-steady-state target cleavage rate” value is reported as 0.00949 ± 0.0025. With UAGUGUGUCACCUACUCAGAGAGAUUAACA the “pre-steady-state target cleavage rate” value was 0.082 ± 0.008. With UAGUGACACACCUUCUCAGAGACAUUAACA the “pre-steady-state target cleavage rate” value was 0.0541 ± 0.011. In the case of UAGUGACAGUGCUUCUCUGAGAGAUUUACA, the “pre-steady-state target cleavage rate” value is reported as 0.0148 ± 0.0037. In the case of UAGUGACUCACCUACUCUGAGAGAUUAUGA, the “pre-steady-state target cleavage rate” value is reported as 0.0205 ± 0.0076. UAGUGACAGACCUCCUCUGAGAGAUUAACA was tested, and the “pre-steady-state target cleavage rate” value was 0.146 ± 0.015. UAGUGACAGUCCUUCAGUGAGAGAUUAACA was tested, and the “pre-steady-state target cleavage rate” value was 0.0136 ± 0.0045. In the case of UAGUGACACACCUUCUCUGAGAGUUUAACA, the “pre-steady-state target cleavage rate” value is reported as 0.139 ± 0.028. In the case of UAGUGACAGUGCUUCUCUGAGAGUUAACA, the “pre-steady-state target cleavage rate” value is reported as less than 0.0001. UAGUGACAGUCCUUCUAUGAGAGAUUAACA was tested, and the “pre-steady-state target cleavage rate” value was 0.0377 ± 0.013. In the case of UAGUGAGUCACCAUCUCUGAGAGAUAAACA, the “pre-steady-state target cleavage rate” value is reported as 0.0772 ± 0.028. In the case of UAGUCUGUCAGCUACUCUGAGAGAUUAACA, the “pre-steady-state target cleavage rate” value is reported as 0.153 ± 0.007. UAGUGACAGUGCUUCUCUGAGAGAUAACA was tested, and the “pre-steady-state target cleavage rate” value was less than 0.0001. In the case of UAGUGAGUCACCUUCUAUGAGAGAUUAACA, the “pre-steady-state target cleavage rate” value is reported as 0.112 ± 0.016. UAGUGAGUCACCUUGUGUGAGAGAUUAACA was tested, and the “pre-steady-state target cleavage rate” value was 0.0842 ± 0.015. For UAGUGAGUCACCUUCUCUAGAGAUUAACA, the “pre-steady-state target cleavage rate” value was 0.0134 ± 0.0056. For UAGUCUGUCAGCUUCUGUGAGAGAUUAACA, the “pre-steady-state target cleavage rate” value was 0.13 ± 0.0088. In the case of UAGUGACAGUCCUUCUCUGAGAGAUUAGCA, the “pre-steady-state target cleavage rate” value is reported as 0.0121 ± 0.0037. UAGUGACUCUCGUUCUCUGAGAGAUUAACA was tested, and the “pre-steady-state target cleavage rate” value was 0.0994 ± 0.013. For UAGUGACACACCUUCUCUGAAAGAUUAACA, the “pre-steady-state target cleavage rate” value was 0.0739 ± 0.0057. In the case of UAGUCUGUCACCUUCACUGAGUGAUUAACA, the “pre-steady-state target cleavage rate” value is reported as 0.00739 ± 0.0041. With UAGUGACUCACCUUCUCUGAGAGAUCAACA the “pre-steady-state target cleavage rate” value was 0.181 ± 0.031. UAGUGAGACUCCUUCUCUGAGAGAUUAACA was tested, and the “pre-steady-state target cleavage rate” value was 0.156 ± 0.0066. UAGUGACAGUGCUUCUCAGACAGAUUAACA was tested, and the “pre-steady-state target cleavage rate” value was 0.00299 ± 0.0027. With UAGUCACACACCUUCUCUGAGAGAUUAAGA the “pre-steady-state target cleavage rate” value was 0.187 ± 0.033. UAGUGACUCACCUUCUCUGAGGGAUUAACA was tested, and the “pre-steady-state target cleavage rate” value was 0.0864 ± 0.011. In the case of UAGUGACAGUCCUUCUCUGAGGGAUUAACA, the “pre-steady-state target cleavage rate” value is reported as 0.0101 ± 0.0035. For UAGUGACAGUCCUUGUCUGAGAGAUAAACA, the “pre-steady-state target cleavage rate” value was 0.00456 ± 0.0042. In the case of UAGUGACAGACCUAGUCUGAGAGAUUAACA, the “pre-steady-state target cleavage rate” value is reported as 0.0533 ± 0.012. With UAGUGACUCACCUUCUCUGAGAGAUAAUCA the “pre-steady-state target cleavage rate” value was 0.0548 ± 0.019. With UAGUCUGUCACGUUGUCUGAGAGAUUAACA the “pre-steady-state target cleavage rate” value was 0.115 ± 0.01. For UAGUGACAGUCCUUGUCUGAGAGAUUAACA, the “pre-steady-state target cleavage rate” value was 0.0364 ± 0.0077. In the case of UAGUGACUCUCCUUCUCUGAGAGAAUAACA, the “pre-steady-state target cleavage rate” value is reported as 0.0117 ± 0.0045. For UAGUGAGUCACGUUCUCUGAGAGAUUAUCA, the “pre-steady-state target cleavage rate” value was 0.0809 ± 0.019. UAGUGACAGUGCUUGUGUGAGAGAUUAACA was tested, and the “pre-steady-state target cleavage rate” value was 0.0111 ± 0.0031. UAGUGUGUCACCUUCUCUGAGAGAUUAGCA was tested, and the “pre-steady-state target cleavage rate” value was 0.117 ± 0.028. For UAGUGUGACACCUUCUCUGUGAGAUUAACA, the “pre-steady-state target cleavage rate” value was 0.044 ± 0.007. For UAGUCUGUCACCUUCAUCUGAGAGAUUAACA, the “pre-steady-state target cleavage rate” value was 0.204 ± 0.052. UAGUGACACACCUUCUCUGAGAGAUUGAACA was tested, and the “pre-steady-state target cleavage rate” value was 0.176 ± 0.022. For UAGUGACUCACCUUCUCAGAGAGAAUAACA, the “pre-steady-state target cleavage rate” value was 0.00443 ± 0.0038. In the case of UAGUGACAGUCCUUCUCUGCGAGAUUAACA, the “pre-steady-state target cleavage rate” value is reported as 0.0166 ± 0.005. With UAGUGACAGUGCUUCUCUGAGACAUUAACA the “pre-steady-state target cleavage rate” value was 0.00255 ± 0.0024. For UAGUCUGUCACCUUCUCUGUGAGAUUAACA, the “pre-steady-state target cleavage rate” value was 0.0688 ± 0.0091. In the case of UAGUGACACCCUUCUCUGAGAGAUUAACA, the “pre-steady-state target cleavage rate” value is reported as 0.085 ± 0.014. In the case of UAGUGACAGUGGUUCACUGAGAGAUUAACA, the “pre-steady-state target cleavage rate” value is reported as 0.0069 ± 0.002.
